Laboratory results from PubChem BioAssay AID686979 (National Center for Advancing Translational Sciences (NCATS), 2013).
Several values for one entry are separate records, joined by “and”; a condition that tells them apart may be missing. Identical values can stand only once. The campaign covered roughly 420,000 compounds. About 50,000 (12%) were called active. Inconclusive means that the source gave no clear call. Such entries were picked first, then a sample of the others. Calls come from the whole dose curve; as a rule, active = well fitted inhibition curve with a large enough effect; inconclusive = small, poorly fitted or top-dose-only effect; inactive = flat fitted curve, though single readings scatter. Potencies of inconclusive entries are left out as doubtful fits. More than one record can exist for a structure, and the calls need not agree.

assay: qHTS for Inhibitors of human tyrosyl-DNA phosphodiesterase 1 (TDP1): qHTS in cells in presence of CPT; conditions: chicken DT40 Tdp1-/-;hTDP1 cells + 20 nM CPT, ATP luminescence, 48 h; series mostly up to 46.2 µM; note: nearly all actives have a fitted effect of over 55% in size
Summary of the method: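 Chicken DT40 Tdp1-/- cells complemented with human TDP1, 400 cells/well, exposed to compounds plus 20 nM camptothecin for at least 48 h at 37 C; viability read as ATP content by CellTiter-Glo luminescence.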
Potency is the fitted concentration of half-maximal effect; tags give direction and shape of the fitted curve.

Row | SMILES | Potency
1 | C[C@@H]1CC2[C@@H]3CC[C@H]4CC(=O)CC[C@]4(C)C3=CC[C@]2(C)[C@@]1(O)C(=O)CO (stereo partly drawn) | inconclusive [inhibitor, single point]
2 | CC(C)OCCCNC(=O)c1ccc(CSc2nc3cccnc3n2Cc2ccccc2)cc1 | inconclusive [inhibitor, single point]
3 | Cn1nc(-c2ccccc2)cc1NC(=O)Nc1ccc(F)cc1 | inconclusive [inhibitor, partial curve, poor fit]
4 | CC(=O)N1CCN(c2ccc(NCc3ccc(C(C)C)cc3)cc2)CC1 | inconclusive [inhibitor, single point]
5 | CC(C)N(C(=O)CSc1ccc(S(=O)(=O)N2CCCCC2)cn1)c1ccccc1 | inconclusive [inhibitor, single point]
6 | COc1ccc(-c2nc3ccc(NS(=O)(=O)c4ccc(C)cc4)cc3o2)cc1 | inconclusive [inhibitor, single point]
7 | O=c1[nH]cnc2c1ncn2[C@H]1CC[C@@H](CO)O1 | active: 7.94 µM and active: 9.2 µM
8 | Cc1ccc(-n2ncc3c2CCCC3NC(=O)CCCN2CCCC2=O)cc1C (stereo not drawn) | inactive
9 | COC(=O)c1c(SCC(=O)Nc2cc(OC)cc(OC)c2)[nH]c2ccc(C)cc2c1=O | inconclusive [inhibitor, single point]
10 | O=C(CSc1nc2sc3c(c2c(=O)n1-c1ccccc1)CCCC3)N/N=C/c1ccccc1C(=O)O | inactive
11 | CC1(C)CC(=O)C=C(NCCN2CCN(C(=O)Nc3ccc(Cl)c(Cl)c3)CC2)C1 | inconclusive [inhibitor, single point]
12 | CCOC(=O)C(C)Sc1ncc(OC)c(Sc2ccc(Cl)cc2)n1 (stereo not drawn) | inactive
13 | CC1=C(C(=O)N2CCCCCC2)CC(CC(=O)NC2CCCCC2)C(=O)N1Cc1ccc(F)cc1 (stereo not drawn) | inconclusive [inhibitor, single point]
14 | Cc1ccc(NC(=O)Cn2ncn3c(cc4ccccc43)c2=O)cc1F | inactive
15 | COc1ccccc1/C=C/C=N/NC(=O)CCn1cnc2ccccc21 | active: 16.4 µM
16 | CCC1=C(c2ccc(C)cc2)S(=O)(=O)N=C1N1CCC(C(=O)Nc2ccccc2F)CC1 | inconclusive [inhibitor, single point]
17 | Cc1ccc(Cn2c(C(=O)NCc3ccccc3Cl)cc3sccc32)cc1 | inconclusive [inhibitor, partial curve]
18 | CCOC(=O)C1Nc2c(F)cc(C)cc2C2c3ccccc3CC12 (stereo not drawn) | inconclusive [inhibitor, single point]
19 | O=C(O)c1c(NC(=O)N2CCCC2)sc2c1CCCC2 | inactive
20 | COc1ccc(-n2ncc3c(N4CCC(C(N)=O)CC4)ncnc32)cc1 | inconclusive [inhibitor, full curve, poor fit]
21 | O=S(=O)(Nc1ccon1)c1ccc(Br)s1 | inactive
22 | O=C(O)c1ccc(S(=O)(=O)NCC2CCCO2)cc1 (stereo not drawn) | inactive
23 | COc1cc2[nH]c(=S)nc(NCCC(C)C)c2cc1OC | inconclusive [inhibitor, single point]

Row | SMILES | Potency
24 | O=C1NC2(CCSC2)C(=O)N1CC(=O)N(Cc1ccccc1)C1CCS(=O)(=O)C1 (stereo not drawn) | inactive
25 | Cc1cc(OCCCCCNCCO)ccc1Cl | active: 14.6 µM
26 | COc1ccc(C(=O)NCCn2cc(SCC(=O)NCC3CCCO3)c3ccccc32)cc1OC (stereo not drawn) | inconclusive [inhibitor, single point]
27 | Cc1onc(-c2ccccc2)c1C(=O)Nc1cccc(S(=O)(=O)NC2=NCCC2)c1 | inconclusive [inhibitor, full curve, poor fit]
28 | Cc1cc(CN2CCN(c3ccccc3F)CC2)cs1 | inactive
29 | CCOc1ccc(CNCc2c(C(=O)O)c(C)n(Cc3cccc(OC)c3)c2C)cc1OC | inconclusive [inhibitor, single point]
30 | Cc1cccc(NC(=O)CSc2nnc3[nH]c(=O)cc(-c4ccccc4)n23)c1C | inconclusive [inhibitor, full curve]
31 | CN(NC(=O)NN(C)C(=O)c1ccccc1)C(=O)c1ccccc1 | inconclusive [inhibitor, single point]
32 | Cc1nc(NC(=O)CCc2ccccc2)sc1C | inconclusive [inhibitor, single point]
33 | COc1ccc(CNC(=O)c2cc(C3CC3)nc3c2cnn3C(C)C)cc1 | inconclusive [inhibitor, single point]
34 | N#Cc1ccc(COC(=O)CSc2nnc(C3CCCCC3)n2N)cc1 | inactive
35 | Cc1ccccc1CN1CCN(C(=O)c2ccc(S(=O)(=O)NCc3ccco3)cc2)CC1 | inconclusive [inhibitor, single point]
36 | Cc1ccc(C2=NN(CCC(=O)NC3CCCC3)C(=O)CC2)cc1 | inconclusive [inhibitor, single point]
37 | O=c1ccn([C@@H]2O[C@H](CNCc3c(OCc4ccccc4F)ccc4ccccc34)[C@@H](O)[C@H]2O)c(=O)[nH]1 | active: 16.4 µM
38 | O=C(Nc1cccc(S(=O)(=O)Nc2ccc(SC(F)F)cc2)c1)C1CCC1 | inconclusive [inhibitor, single point]
39 | OC[C@@H]1CN(CCc2ccccc2)C[C@H](n2cnc3c(N4CCOCC4)ncnc32)O1 | inactive
40 | CC(C)(C)CC(C)(C)N=C1Nc2ccccc2N[C@]12C[C@H]1CCCC(=O)N3CC[C@@H](C2)[C@@H]13 | inconclusive [inhibitor, single point]
41 | CO/N=C/C(=N\Nc1ccc(OC)cc1)C(=O)c1ccc(F)cc1 | inconclusive [inhibitor, partial curve]
42 | Cc1cccc(-[n+]2c(C)cc(C)c3c(=O)[nH]c(=O)[nH]c32)c1 | inconclusive [inhibitor, partial curve, poor fit]
43 | CC(C)C(N)c1csc(Nc2nncc3ccccc23)n1 (stereo not drawn) | inconclusive [inhibitor, single point]
44 | Cc1nc(CN(C)C(=O)c2cc(COc3ccc4ncccc4c3)on2)cs1 | active: 5.8 µM
45 | COc1ccc(CN=Cc2c(O)[nH]c3ccccc23)cc1 | inconclusive [inhibitor, single point]
46 | Cc1ccccc1C(C(=O)NCc1ccccc1)N(Cc1ccco1)C(=O)c1ccccn1 (stereo not drawn) | inconclusive [inhibitor, single point]

Row | SMILES | Potency
47 | Cc1ccc(NC(=O)C2CCN(S(=O)(=O)c3c(C)n[nH]c3C)CC2)c(C)c1 | inactive
48 | COc1ccc(C2Nc3ccccc3-c3cc(C)nn32)cc1OC (stereo not drawn) | inconclusive [inhibitor, single point]
49 | N#Cc1sc2nc(C3CC3)cc(-c3ccc(Cl)cc3)c2c1N | active: 16.4 µM
50 | CCOC(=O)c1c(C)[nH]c(C)c1C(=O)COC(=O)c1cc2ccccc2cc1OC | inconclusive [inhibitor, single point]
51 | CN(C)CCCN(C(=O)c1ccc(S(=O)(=O)N2CCCCCC2)cc1)c1nc2ccc(F)cc2s1 | inconclusive [inhibitor, single point]
52 | O=S(=O)(c1ccc(-c2csc(-c3cccnc3)n2)cc1)N1CCCCC1 | inconclusive [inhibitor, single point]
53 | CC(C)(C)c1cc[n+](/C(C(=S)Nc2ccccc2F)=C(/[O-])c2ccc3c(c2)OCCO3)cc1 | inconclusive [inhibitor, single point]
54 | COC(=O)c1cc2sc(C)cc2n1Cc1cccc(OC)c1 | inconclusive [inhibitor, single point]
55 | CC(C)(C)c1ccc(-c2nnc3sc(-c4ccncc4)nn23)cc1 | active: 12.6 µM
56 | Cc1cnc(C(=O)OCC(=O)Nc2cc(S(=O)(=O)N3CCOCC3)ccc2Cl)cn1 | inactive
57 | CC1CCCCN1S(=O)(=O)c1cccc(S(=O)(=O)N2CCOCC2)c1 (stereo not drawn) | inactive
58 | COc1ccccc1-n1c(SCC(=O)Nc2ccccc2F)nc2[nH]ncc2c1=O | active: 12.6 µM
59 | COc1cc(/C=C/C(=O)Nc2ccc3nc4n(c(=O)c3c2)CCCC4)cc(OC)c1OC | inconclusive [inhibitor, full curve, poor fit]
60 | O=C(Nc1ccc(Br)c2cccnc12)c1ccc(Cn2cc([N+](=O)[O-])cn2)o1 | active: 16.4 µM
61 | COc1ccc(Cl)cc1NC(=O)CN(C)C(=O)c1ccc(OCc2ccccc2)c(OC)c1 | inconclusive [inhibitor, single point]
62 | CCCCNC(=O)c1nc(C2CCNCC2)oc1-c1cccc(C(F)(F)F)c1 | inconclusive [inhibitor, single point]
63 | C=CCOC(=O)C1=C(C)NC(SCC)=C(C#N)C1c1ccc(Cl)cc1 (stereo not drawn) | active: 0.731 µM
64 | COc1ccc(CNC(=O)CCCN2C(=O)CSc3c2c(C)nn3-c2ccccc2)cc1 | inconclusive [inhibitor, single point]
65 | COCCNc1nc(NCCOc2ccccc2Cl)c2sc(-c3ccccc3)cc2n1 | active: 9.2 µM
66 | CN(c1ccccc1)c1nc(N)c([N+](=O)[O-])c(NC2CCCCC2)n1 | inconclusive [inhibitor, single point]
67 | COc1ccc(S(=O)(=O)NC2CC(C)(C)NC(C)(C)C2)cc1 | inactive
68 | Cc1cccn2c(=O)c(C(=O)NCc3ccc(F)cc3)c(O)nc12 | inconclusive [inhibitor, full curve, poor fit]
